In all, about 33,000 sequences were measured (“E-score (-0.5 to 0.5)”: median about -0.054, highest 2% from about 0.39 on). The list shows a part of the results.
Biological target: Ylr278c (UniProt Q05854)
Assay: PBM E-score (8-mer binding enrichment) (E-score (-0.5 to 0.5)); higher = stronger / more preferred TF binding; most listed sequences are background and not binding sites
Settings: protein concentration: 200 nM; construct: GST-DNA-binding domain
How it was run: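 Masliner-normalised scans of fluorescent anti-GST signal were the basis for scoring. That signal came from GST-tagged yeast transcription factors applied at about 100-200 nM to double-stranded universal all-10-mer Agilent arrays on fresh or once-stripped slides. Each ungapped eight-base word, pooled with its reverse complement, received an E-score from the Universal PBM Analysis Suite.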

Point of comparison: GTAGCAGA, “PBM E-score” value -0.132. Against it:
- CCTCATTA — higher, -0.0573
- AATATCAC — higher, -0.0363
- CAGCGACC — higher, -0.116
- AAGTCAAC — lower, -0.28
- AGTTCTCG — higher, -0.0718
- ACGGCTCT — higher, -0.0791
- CAATAAGA — lower, -0.147
- ATCCCCGA — higher, 0.379
- ATACTTCA — lower, -0.155
- ATCTTAAA — higher, -0.0174
- GAGCCCCC — higher, -0.0733
- CCTTGCTA — lower, -0.17
- CAAGCGGA — higher, 0.272
- GCTCCAAA — lower, -0.172
- ATTAATAA — higher, 0.156
- ATCTCCGG — higher, 0.493
- ATCCTATG — higher, 0.0235
- AACGAGCA — lower, -0.239
- ATTTAAGG — higher, -0.0397
- TGAGGGAA — lower, -0.178
- AATCATGG — lower, -0.228
- AATAGTCA — lower, -0.133
- AGCAGGCC — higher, -0.113
- AACGTCTC — lower, -0.263
- CTACGCTA — higher, -0.121
- ATCTCGAA — higher, -0.0131
- ATTTCTGG — higher, -0.0816
- GGAGGATA — higher, 0.0329
- CTGTGAGC — higher, -0.12
- TACACGTA — lower, -0.173
- AATGAGGT — higher, -0.032
- CCCTACAC — higher, 0.00834
- CGTCATCA — lower, -0.197
- ATAATAGC — higher, 0.00806
- CAACGCAC — higher, -0.00309
- CTAGTCTC — lower, -0.156
- CATGACTA — lower, -0.263
- AATTAATG — higher, 0.0742
- ACCTATCC — higher, -0.0335
- CACTTAGC — higher, -0.122
- ACTTGTGG — higher, -0.0504
- AAATTTTC — higher, 0.0224
- CCTGTTCA — lower, -0.287
- AAGGATCG — higher, -0.0269
- CCCACAAG — higher, -0.0237
- CAAGGAGC — higher, -0.0876
- AAATGACA — lower, -0.181
- ATTCCTGA — higher, -0.0977
- CTGCTACA — higher, -0.0228
- CGCGGAGA — higher, 0.428
- CCGTGTCA — higher, 0.235
- TCGACTAA — higher, -0.0871
- CAAACTTC — higher, 0.0257
- AGGTACTA — lower, -0.157
- CCCTGGGC — lower, -0.282
- CCGGGGCC — higher, 0.358
- CCCCCCCC — lower, -0.351
- TCGAGACA — lower, -0.266
- AAAACAGC — higher, -0.0177
- CCCCGGTA — higher, 0.329
- CACCCCCC — lower, -0.186
- AGTATCCG — higher, 0.264
- ATATCCGA — higher, 0.387
- ACGGAGTC — higher, 0.398
- AACCCTAG — lower, -0.209
- TGTCGCAA — higher, -0.0678
- GTCCGATA — higher, 0.414
- CACGGACC — higher, 0.282
- CCGTAGTC — higher, 0.301
- GAATGAGC — higher, -0.0948
- GAGCTGGC — higher, -0.0798
- GAGGACGC — higher, 0.00854
- ATTGTGGC — higher, -0.104
- AAACGACC — higher, -0.0492
- AAACCTCA — higher, 0.0175
- CGTCCAGC — lower, -0.233
- GCATGAGC — lower, -0.134
- ACACAGGA — higher, -0.0473
- ACGTCAAG — lower, -0.309
- AAGGCACA — lower, -0.231
- GGTCATAA — higher, -0.0252
- CCTCCCCC — lower, -0.181
- CATCGAGG — lower, -0.185
- AGTGCCCC — higher, -0.118
- GTGCTCAA — higher, -0.104
- ACCCACTA — higher, 0.0798
- TAGGGTAA — higher, 0.0144
- ACGTGAAA — higher, -0.124
- CGCCATTC — higher, 0.198
- ATCATGAT — lower, -0.14
- GGCGCGAC — higher, 0.19
- AGAAAGTA — lower, -0.141
- CCGTGCAC — higher, 0.0905
- AAATGCCA — higher, -0.131
- ACGTGTAA — lower, -0.217
- AAGCGCAG — higher, 0.199
- CAAGGACC — higher, -0.0179
- ATCCTCCC — higher, 0.0358
- CATTACCA — higher, -0.0748
- AGGCGGGG — higher, 0.221
- TCTCTCCA — higher, -0.0638
- TCCCAGAA — higher, -0.128
- CCTTACTA — higher, -0.0108
- ACACTGTA — lower, -0.213
- ATTATTTA — higher, 0.11
- ATATTCGA — higher, -0.0363
- AGCGTACC — higher, -0.0838
- CCCGAATC — higher, 0.251
- GTATGCGA — higher, -0.0635
- TCGCCTCA — higher, 0.0413
- AATCAATC — higher, 0.136
- CTCCGTTA — higher, 0.347
- GATGTTAA — higher, 0.0201
- ACAGATAA — higher, -0.0863
- CGTGGAAC — higher, 0.0665
- ATTGTGGA — higher, -0.0975
- ACGTGAAC — lower, -0.192
- CAGATGCC — the same, -0.132
- CCATTCAG — higher, -0.0237
- GACGGGGA — higher, 0.312
- CGCGGGCC — higher, 0.272
- ATGTAGTC — lower, -0.141
- CACTACAG — higher, -0.0843
- GGTAACCA — lower, -0.263
- CGGAGTAC — higher, 0.462
- GCTTTGAA — lower, -0.211
- TGATCCCA — higher, -0.12
- AAAAGCCA — higher, 0.0629
- CCCGCAGG — higher, 0.207
- TAGTACAA — higher, -0.125
- CCCGTGAG — higher, 0.112
- CACTTCTA — higher, -0.111
- CTGATCAC — lower, -0.133
- AAGAACGA — higher, 0.065
- CATCGGGG — higher, 0.314
- AAAGGCTG — lower, -0.205
- CGCACTTA — higher, 0.135
- TCGGTACA — higher, 0.103
- ACGTCAGG — lower, -0.236
- AGGTCCTA — lower, -0.146
- GCTTGGTA — lower, -0.261
- CATGGTAC — higher, -0.00515
- GGATGGGA — higher, 0.0151
- GTGCTGGA — lower, -0.205
- CAGGCACA — higher, -0.121
- CTAGATGA — lower, -0.241
- AGAGGTGC — higher, 0.0557
- GAGGTTTA — higher, 0.0695
- GTAATAAC — lower, -0.14
- ACGCTAAC — lower, -0.188
- GCGACCGC — higher, 0.0978
- ATGCCGGC — higher, 0.372
- GCAAGATA — lower, -0.196
- CCTGTGGA — lower, -0.344
- CCCCCAAC — lower, -0.256
- ACCCCGCG — higher, 0.347
- AAGGAAGC — lower, -0.162
- TAGAACCA — lower, -0.14
- GACGCCAC — higher, -0.0895
- ATCGGACC — higher, 0.412
- AAGCGTTA — lower, -0.16
- ATTTAGAG — higher, -0.0895
- GCCCTTCC — higher, -0.0379
- CAATTTGC — lower, -0.159
- ACCTCAGT — lower, -0.183
- AGTGAGTC — higher, -0.0789
- CCTCAAAG — lower, -0.271
- AGCAGTGA — higher, 0.161
- AGGGTCGA — higher, -0.00353
- AACTGTCT — higher, -0.119
- CCGTTTAG — higher, 0.12
- ATGGTGGA — lower, -0.244
- GCTGGTCA — lower, -0.281
- ATATGCAG — lower, -0.177
- ACGGTGAC — higher, -0.0149
- ATCGACAC — lower, -0.273
- CTTCACAA — lower, -0.204
- ACAATGAG — higher, -0.082
- CCACGCTC — lower, -0.139
- GCGAAGTA — higher, 0.0791
- ACCGGGGC — higher, 0.367
- CACGGTGG — higher, -0.0685
- AAGCGGAC — higher, 0.335
- ATTCGCTG — higher, -0.00731
- AACCGCTT — higher, -0.0982
- ATCGGGAG — higher, 0.192
- GACCGCGC — higher, 0.171
- CGAGAAAC — higher, 0.107
- ACCAATCA — higher, -0.0153
- GTCTTTCA — lower, -0.183
- ACGTTTGC — higher, -0.0764
- ACAGACAT — higher, -0.116
- TACCATGA — lower, -0.231
- AGGGCCCG — higher, 0.152
- CTGATAAG — lower, -0.165
- CAATTAGC — higher, 0.0532
- CCGTCATA — higher, 0.206
- ACACTTTA — higher, -0.0751
- ACGTCGAT — higher, -0.117
- ACTAACTC — higher, -0.0256
- ACTTGTCT — higher, -0.108
- AGACGGGA — higher, 0.0938
- ATTCTCCA — higher, -0.052
- CCCCCACA — lower, -0.361
- CCACGCCC — higher, 0.0633
- CTGCCGAC — higher, 0.15
- ACATAAAA — lower, -0.214
- AAATCAGA — higher, -0.1
- CCCCGGAA — higher, 0.406
- CAACCTGG — higher, -0.0289
- ATCTTTCG — higher, 0.00101
- AACAGTGG — higher, -0.0967
- CCTACCCC — higher, 0.249
- GATAGTAC — higher, -0.131
- CGTCACTC — higher, 0.13
- TCACGCAA — higher, 0.0644
- AGGGGCTA — higher, -0.0775
- CGTGCCAA — higher, -0.0693

Source: the supplement of paper PMC3334620
